In PubChem BioAssay AID2675 (National Center for Advancing Translational Sciences (NCATS), 2010):
Out of some 280,000 compounds screened, about 100 (0.036%) were called active. The inconclusive results got no clear call from the source; some entries with a clear call stand among them for comparison. Calls follow the shape of the dose curve; as a rule, active = well fitted inhibition curve with a large enough effect in the signal ratio, with a control signal flat (not every such curve was filed as active); inconclusive = small, poorly fitted or top-dose-only effect, or effect the other way, or a change in a side signal; inactive = no such curve, though single readings can be large or run the other way; the % refers to the signal ratio. Where the call is inconclusive, the potency comes from a doubtful curve fit. A note “side channel” means that the fit belongs to a control or component signal, not to the main read-out.

The compounds below were run against Muscleblind-like protein 1 (Homo sapiens) (UniProt Q9NR56) (assay: qHTS Assay for Inhibitors of MBNL1-poly(CUG) RNA binding). Details: TR-FRET MBNL1-His/biotin-(CUG)12 binding, 665/545 ratio; activity change, negative = inhibition: at 57.5 µM (top of the series).
UniProt Q9NR56, sequence (Q9NR56 whole entry, looked up): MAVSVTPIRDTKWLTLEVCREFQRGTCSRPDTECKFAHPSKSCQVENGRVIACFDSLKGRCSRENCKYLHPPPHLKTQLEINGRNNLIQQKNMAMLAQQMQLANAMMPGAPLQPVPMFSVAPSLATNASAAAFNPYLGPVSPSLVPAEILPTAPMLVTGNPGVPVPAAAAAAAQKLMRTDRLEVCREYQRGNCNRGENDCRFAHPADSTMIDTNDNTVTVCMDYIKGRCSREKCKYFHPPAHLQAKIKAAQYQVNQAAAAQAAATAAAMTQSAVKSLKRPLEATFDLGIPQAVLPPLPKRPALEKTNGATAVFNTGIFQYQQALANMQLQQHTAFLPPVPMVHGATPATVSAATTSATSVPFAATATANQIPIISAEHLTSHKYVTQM
Method in brief: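 Compound titration spanned 92 nM–58 uM against the MBNL1-His/biotin-(CUG)12 complex. After 60 min at room temperature with 5 nM streptavidin-XL665 and 0.055 ng/ul terbium anti-His, ratiometric 665/545 nm emission (Ex 340 nm) normalized to controls.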
% is scaled to controls: 0 for no effect and ±100 for the full control effect; potency is read from the fitted curve at half-maximal effect; tags tell the direction and shape of the fitted curve or compound fluorescence and quenching.

Structure (SMILES) | Potency | activity change, negative = inhibition
Cc1cc2n(n1)C(c1ccccc1Cl)Nc1ccccc1-2 (stereo not given) | inactive | –
O=C1/C(=C/c2ccncc2)SC(=S)N1C1CCS(=O)(=O)C1 (stereo not given) | inconclusive: 25.1 µM [quencher, side channel, single point] | –
COc1ccccc1NC(=O)CN1C(=O)COc2ccc(S(=O)(=O)N3CCOCC3)cc21 | inactive | –
CCCSc1nnc2nc3c(nn12)c1ccccc1n3C | inconclusive: 3.16 µM [quencher, side channel, full curve] | –
COc1cccc(C2C(C#N)=C(N)Oc3c2oc(CO)cc3=O)c1 (stereo not given) | inconclusive: 15.8 µM [quencher, side channel, single point] | –
CCOC(=O)N1CCC(=NNS(=O)(=O)c2cccc([N+](=O)[O-])c2)CC1 | inconclusive: 28.2 µM [quencher, side channel, single point] | –
Nc1c(C(=O)N2CCCCC2)sc2nc3c(cc12)CCCC3 | inconclusive: 15.8 µM [quencher, side channel, partial curve] | –
C=CCOn1c(=O)c(-c2ccc(Br)cc2)[n+]([O-])c2ccccc21 | inconclusive: 2.82 µM [quencher, side channel, full curve] | –
Cc1cccn2c(=O)c(C=O)c(Sc3ncccn3)nc12 | inconclusive: 35.5 µM [quencher, side channel, partial curve] | –
Cc1ccc(/C=C(\C#N)C(=O)NCC2CCCO2)o1 (stereo not given) | inconclusive: 20 µM [quencher, side channel, single point] | –
C(=C\c1nnc(-c2cccs2)o1)/c1ccccc1 | inconclusive: 28.2 µM [quencher, side channel, single point] | –
CC(C)CCNC(=O)c1ccc2c(SCC(=O)O)c3c(nc2c1)CCC3 | inconclusive: 25.1 µM [quencher, side channel, partial curve] | –
O=C(COC(=O)C1CC2C=CC1C2)Nc1cccc(S(=O)(=O)N2CCCCC2)c1 (stereo not given) | inactive | –
O=C(Cn1c(=O)oc2cccnc21)Nc1ccccc1Oc1ccc(Cl)cc1Cl | – | inconclusive: -29.1% [phenotype inactive]
CC(CCc1ccc(O)cc1)NC1c2ccccc2-c2ccccc21 (stereo not given) | inactive | –
N#Cc1ccc(OCC(O)CS(=O)(=O)c2ccccc2)cc1 (stereo not given) | inactive | –
COc1ccccc1C(=O)N/N=C/c1cnc2ccccc2n1 | inconclusive: 17.8 µM [quencher, side channel, partial curve] | –
COc1ccc(-c2cn3cccnc3n2)cc1NS(=O)(=O)c1ccccc1 | inconclusive: 15.8 µM [quencher, side channel, partial curve] | –
CCOC(=O)C(C)(C)N(Cc1ccccc1C)S(=O)(=O)c1ccc(Cl)c([N+](=O)[O-])c1 | inactive | –
O=C(CN1CCOCC1)N/N=C/c1c(O)ccc2ccccc12 | inconclusive: 20 µM [quencher, side channel, single point] | –

Structure (SMILES) | Potency | activity change, negative = inhibition
Cc1cc(C)c2c(N)c(C(=O)Nc3nccs3)sc2n1 | inconclusive: 15.8 µM [quencher, partial curve, poor fit] | –
COCC(C)NC(=O)CCS(=O)(=O)c1nc(-c2ccc(OC)cc2)cc(C(F)(F)F)n1 (stereo not given) | inactive | –
O=C(/C=C/c1ccco1)Nc1ccc2c(c1)OCO2 | inconclusive: 25.1 µM [quencher, side channel, partial curve] | –
COc1ccccc1N1CCN(C(=O)CCCN2C(=O)c3cccc4cccc(c34)C2=O)CC1 | inconclusive: 2.24 µM [quencher, side channel, partial curve] | –
COc1ccc(-c2nnc(SCC(=O)NCCC(C)C)nc2-c2ccc(OC)c(OC)c2)cc1OC | inconclusive: 14.1 µM [quencher, side channel, partial curve] | –
CN(C)c1ccc(/C=[N+](\[O-])C2SC(=S)N(C)C2(C)C)cc1 (stereo not given) | inconclusive: 25.1 µM [quencher, side channel, partial curve] | –
COc1ccc(C(=O)Nc2cccc(-c3nnc(-c4ccco4)o3)c2)cc1 | inconclusive: 10 µM [inhibitor, single point] | –
O=C(CNC(=O)c1ccccn1)N=Nc1c(O)[nH]c2ccccc12 | inconclusive: 15.8 µM [quencher, partial curve] | –
Cc1ccc(C)c(N2CCN(C(=S)Nc3ccc4nc(N5CCOCC5)cc(C)c4c3)CC2)c1 | inactive | –
O=C(Nc1ccccc1F)N(CCCN1CCOCC1)Cc1cc2cc3c(cc2[nH]c1=O)OCCO3 | inactive | –
O=C(Cc1cccs1)NNC(=S)NCc1ccc(Cl)cc1 | inactive | –
Cc1ccc(CNC(=O)C2CC(c3ccc([N+](=O)[O-])cc3)=NO2)cc1 (stereo not given) | inconclusive: 15.8 µM [quencher, side channel, partial curve] | –
Cc1ccc(NC(=O)C2(c3ccccc3)CCOCC2)c([N+](=O)[O-])c1 | inconclusive: 20 µM [quencher, side channel, single point] | –
O=C(N=Nc1c(O)[nH]c2ccc(Br)cc12)c1ccccc1-n1cccc1 | inconclusive: 25.1 µM [quencher, side channel, partial curve] | –
C/C(=N\N(C)C)c1ccc(OCCOc2ccc([N+](=O)[O-])cc2)cc1 | inconclusive: 11.2 µM [quencher, side channel, partial curve] | –
COc1cc(/C=C2/SC(=Nc3ccc(O)cc3)NC2=O)cc(OC)c1O | inactive | –
COC(=O)C(C)Oc1ccc2c(c1)O/C(=C\c1ccco1)C2=O (stereo not given) | inconclusive: 15.8 µM [quencher, partial curve] | –
NS(=O)(=O)c1ccc(NC(=O)Nc2cccc(Cl)c2)cc1 | inconclusive: 100 µM [inhibitor, partial curve] | –
CCOc1ccc(N(CC(=O)NC2CCCCCC2)S(=O)(=O)c2ccccc2)cc1 | inconclusive: 25.1 µM [quencher, side channel, single point] | –
CCOC(=O)c1sc(C)c2c(=O)n(CCc3ccccc3)nnc12 | inconclusive: 2.51 µM [quencher, side channel, full curve] | –
